Source: PubChem BioAssay (NCATS)
Inconclusive results, whose numbers are uncertain, are shown with a selection of clear calls. Potencies of inconclusive entries are doubtful fits and often do not repeat. Activity calls are given as the source filed them. Calls come from the whole dose curve; as a rule, active = well fitted curve in the direction sought with a large enough effect; inconclusive = small, poorly fitted or top-dose-only effect, or another doubt; inactive = no such curve, though single readings can be large; an effect the other way counts as inactive or inconclusive.

Columns and labels:
[1] = P-glycoprotein substrates identified in KB-8-5-11 adenocarcinoma cell line, qHTS therapeutic library screen (AID 1346987); conditions: KB-8-5-11 (P-gp overexpressing) viability, CellTiter-Glo, 72 h; series mostly up to 44.5 µM; note: nearly all actives have a fitted effect of over 65% in size
Summary of the method: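 Luminescence from CellTiter-Glo, read 5 min after addition, quantified survival of KB-8-5-11 (P-gp-overexpressing) cells exposed to compounds for 72 h. AC50 was derived from concentration-response curves.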

[2] = tested on: Zika virus NS2B-NS3 protease (unlinked complex); test: Primary screen GU Rhodamine qHTS for Zika virus inhibitors: Unlinked NS2B-NS3 protease assay (AID 1347159); conditions: Recombinant ZIKV NS2B-NS3 protease, Rhodamine110 substrate fluorescence; series mostly up to 107 µM; note: nearly all actives have a fitted effect of over 60% in size
Summary of the method: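 Percent inhibition came from the 15-min rise in Rhodamine110 fluorescence (1.5 microM substrate, ~15% conversion), normalized to no-inhibitor and no-enzyme wells and Hill-fitted. Unlinked protease, 25 nM, pH 8.0 Tris buffer; compounds up to 114 microM, 15-min preincubation.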

[3] = Primary qHTS for inhibitors of nuclear receptor binding SET domain protein 2 (NSD2) in an isogenic RCH-ACV NSD2 p.E1099K mutant (9B) (AID 1645876); conditions: RCH-ACV NSD2 E1099K (9B) viability, CellTiter-Glo, 72 h; series mostly up to 44.9 µM; note: nearly all actives have a fitted effect of over 70% in size
CRL-7250 = normal cell line; test: Cytotoxic Profiling of Annotated Libraries Using Quantitative High-Throughput Screening (AID 1296008); conditions: Five cell lines viability, CellTiter-Glo ATP luminescence, 48-72 h; max response: stronger effect = lower value; note: nearly all actives have a fitted effect of over 60% in size; for max response: % is set by controls: 0 for no effect and ±100 for the full control effect
Summary of the method: (§1)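 Compounds were pin-transferred onto cells and incubated 48 or 72 hr at 37 degree Celsius, 95% humidity. CellTiter-Glo was added, plates sat 10 min at room temperature, then ATP-coupled luminescence was imaged as the viability read-out.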

HaCat = test: as above; conditions: Five cell lines viability, CellTiter-Glo ATP luminescence, 48-72 h; max response: stronger effect = lower value
Summary of the method: as §1

NIH3T3 = test: as above; conditions: Five cell lines viability, CellTiter-Glo ATP luminescence, 48-72 h; max response: stronger effect = lower value
Summary of the method: as §1

C33A = test: Primary qHTS to identify gynecologic anti-cancer compounds using libraries of approved drugs and bioactive compounds (AID 1345084); conditions: Gynecologic cancer cell panel viability, ATPlite luminescence, 48 h; series mostly up to 57.5 µM; note: nearly all actives have a fitted effect of over 55% in size; for activity change, negative = cytotoxicity: % is set by controls: 0 for no effect and ±100 for the full control effect
Summary of the method: (§2)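 Cell viability after 48 h drug treatment, ATPlite luminescence readout; five doses.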

Es-2 = test: as above; conditions: Gynecologic cancer cell panel viability, ATPlite luminescence, 48 h; series mostly up to 57.5 µM
Summary of the method: as §2

JEG-3 = test: as above; conditions: Gynecologic cancer cell panel viability, ATPlite luminescence, 48 h; series mostly up to 57.5 µM
Summary of the method: as §2

PA-1 = test: as above; conditions: Gynecologic cancer cell panel viability, ATPlite luminescence, 48 h; series mostly up to 57.5 µM
Summary of the method: as §2

SKOV3 = test: as above; conditions: Gynecologic cancer cell panel viability, ATPlite luminescence, 48 h; series mostly up to 57.5 µM
Summary of the method: as §2

Tov-21-G = test: as above; conditions: Gynecologic cancer cell panel viability, ATPlite luminescence, 48 h; activity change, negative = cytotoxicity: at 57.5 µM (top of the series) unless noted
Summary of the method: as §2

Hek293T = test: as above; conditions: Gynecologic cancer cell panel viability, ATPlite luminescence, 48 h, control line for the selectivity index; activity change, negative = cytotoxicity: at 57.5 µM (top of the series) unless noted
Summary of the method: as §2

OV90 = test: as above; conditions: Gynecologic cancer cell panel viability, ATPlite luminescence, 48 h; series mostly up to 57.5 µM
Summary of the method: as §2

Tov112D = test: as above; conditions: Gynecologic cancer cell panel viability, ATPlite luminescence, 48 h; series mostly up to 57.5 µM
Summary of the method: as §2

CAOV3 = test: as above; conditions: Gynecologic cancer cell panel viability, ATPlite luminescence, 48 h; activity change, negative = cytotoxicity: at 57.5 µM (top of the series)
Summary of the method: as §2

CASKI = test: as above; conditions: Gynecologic cancer cell panel viability, ATPlite luminescence, 48 h; series mostly up to 57.5 µM
Summary of the method: as §2

[4] = Primary qHTS for inhibitors of nuclear receptor binding SET domain protein 2 (NSD2) in an RCH-ACV wild type WT cells (2C) (AID 1645877); conditions: RCH-ACV (leukaemia line) NSD2 WT (2C) viability, CellTiter-Glo, 72 h; activity change, negative = cell killing: at 44.9 µM (top of the series) unless noted; series mostly up to 44.9 µM; note: nearly all actives have a fitted effect of over 70% in size
HeLa = test: Primary qHTS to identify gynecologic anti-cancer compounds using libraries of approved drugs and bioactive compounds (AID 1345084); conditions: Gynecologic cancer cell panel viability, ATPlite luminescence, 48 h; activity change, negative = cytotoxicity: at 57.5 µM (top of the series); note: nearly all actives have a fitted effect of over 55% in size; for activity change, negative = cytotoxicity: % is set by controls: 0 for no effect and ±100 for the full control effect
Summary of the method: as §2
Potency is the fitted concentration of half-maximal effect; tags give direction and shape of the fitted curve.

C=C1C(=O)O[C@H]2C1[C@H](OC(=O)/C(=C/CO)COC(=O)/C(C)=C/CO)CC(=C)[C@@H]1CC(=O)[C@@H](C)[C@@H]12 (stereo not given in full)
inactive: max response (HaCat) -52.7%
active: Potency [3] 3.55 µM
inconclusive: Potency [1] 2.52 µM [inhibitor, single point] | Potency [2] 8.91 µM [inhibitor, full curve] | Potency (CRL-7250) 8.93 µM [inhibitor, partial curve] | Potency (NIH3T3) 15.9 µM [inhibitor, single point] | Potency (C33A) 12.6 µM [cytotoxic, single point] | Potency (Es-2) 14.1 µM [cytotoxic, single point] | Potency (JEG-3) 14.1 µM [cytotoxic, partial curve, poor fit] | Potency (PA-1) 2.51 µM [cytotoxic, full curve, poor fit] | Potency (SKOV3) 20 µM [cytotoxic, single point] | Potency (Tov-21-G) 11.2 µM [cytotoxic, single point]

Cc1c(C(=O)Nc2ccc(N3CCC(N4CCOCC4)CC3)c(C#N)c2)cnn1-c1ccc(Cl)cc1
active: Potency [1] 0.82 µM | Potency [3] 0.23 µM | Potency (CRL-7250) 1.16 µM | Potency (NIH3T3) 0.366 µM | Potency (C33A) 0.891 µM | Potency (JEG-3) 0.794 µM
inactive: Potency (Tov112D)
inconclusive: Potency (HaCat) 1.64 µM [inhibitor, full curve, poor fit] | Potency (Es-2) 2.51 µM [cytotoxic, full curve, poor fit] | Potency (Hek293T) 2.24 µM [cytotoxic, full curve] | Potency (OV90) 1.26 µM [cytotoxic, full curve, poor fit] | Potency (PA-1) 2 µM [cytotoxic, full curve, poor fit]

CCCOc1ccc(CCc2nc3cc(-c4c(C)noc4C)ccc3n2CCN2CCOCC2)cc1
active: Potency [3] 8.33 µM
inconclusive: Potency [1] 7.31 µM [inhibitor, partial curve] | Potency (CRL-7250) 29.1 µM [inhibitor, single point] | Potency (HaCat) 0.259 µM [inhibitor, partial curve, poor fit] | Potency (CAOV3) 39.8 µM [cytotoxic, partial curve, poor fit] | Potency (CASKI) 15.8 µM [cytotoxic, partial curve] | Potency (SKOV3) 31.6 µM [cytotoxic, single point]
inactive: max response (NIH3T3) -3.98% | Potency (Es-2)

C=C1C(=O)O[C@@H]2[C@H]3C(C)=CC(=O)C3=C(C)CC[C@@H]12
active: Potency (CRL-7250) 7.31 µM
inconclusive: Potency (HaCat) 29.1 µM [inhibitor, single point] | Potency (NIH3T3) 16.4 µM [inhibitor, partial curve, poor fit] | Potency (C33A) 39.8 µM [cytotoxic, single point] | Potency (CAOV3) 35.5 µM [cytotoxic, single point] | Potency (CASKI) 20 µM [rising, single point] | Potency (Es-2) 39.8 µM [cytotoxic, single point] | Potency (Hek293T) 25.1 µM [cytotoxic, single point] | Potency (JEG-3) 28.2 µM [rising, partial curve, poor fit] | Potency (OV90) 22.4 µM [cytotoxic, single point] | Potency (PA-1) 39.8 µM [cytotoxic, single point] | Potency (SKOV3) 11.2 µM [cytotoxic, partial curve, poor fit]

O=C(C1=CCN2c3c(cccc31)OC[C@H]2CN1CCOCC1)c1cccc2ccccc12
inconclusive: Potency [1] 16.4 µM [inhibitor, single point] | Potency [3] 18.3 µM [inhibitor, single point] | Potency [4] 29 µM [inhibitor, single point] | Potency (CRL-7250) 29.1 µM [inhibitor, single point] | Potency (HaCat) 25.9 µM [inhibitor, single point] | Potency (NIH3T3) 23.1 µM [inhibitor, single point] | Potency (C33A) 39.8 µM [cytotoxic, single point] | Potency (CAOV3) 39.8 µM [cytotoxic, single point] | Potency (Es-2) 35.5 µM [cytotoxic, single point] | Potency (HeLa) 39.8 µM [cytotoxic, single point] | Potency (OV90) 31.6 µM [cytotoxic, single point] | Potency (PA-1) 39.8 µM [cytotoxic, single point] | Potency (SKOV3) 39.8 µM [cytotoxic, single point] | Potency (Tov-21-G) 35.5 µM [cytotoxic, single point] | Potency (Tov112D) 39.8 µM [cytotoxic, single point]
